Assay results: article PMC3517938
Results are given in words; binding and its absence hold for the method and conditions named. For some assays here: Binding seen in cells or lysates may run through a third protein. Some entries that bind do so weakly or less than the wild type.

Protein sequences, listed by entry. Tags and fused reporters are not part of them. Chains listed by the source or under a name are the forms on record and can include a tag or linker. Residues count along the entry.
UniProt Q96FI4: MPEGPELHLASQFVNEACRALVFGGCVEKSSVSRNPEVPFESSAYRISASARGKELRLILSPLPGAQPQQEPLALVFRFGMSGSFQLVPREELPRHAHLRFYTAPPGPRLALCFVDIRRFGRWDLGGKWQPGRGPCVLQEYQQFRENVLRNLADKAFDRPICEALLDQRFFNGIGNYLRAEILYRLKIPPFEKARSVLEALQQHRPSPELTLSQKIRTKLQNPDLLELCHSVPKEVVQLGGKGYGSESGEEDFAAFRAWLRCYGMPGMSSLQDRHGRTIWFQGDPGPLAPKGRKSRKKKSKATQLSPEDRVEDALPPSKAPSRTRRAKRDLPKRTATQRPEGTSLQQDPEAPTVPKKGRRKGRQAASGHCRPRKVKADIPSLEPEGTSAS
UniProt O15527: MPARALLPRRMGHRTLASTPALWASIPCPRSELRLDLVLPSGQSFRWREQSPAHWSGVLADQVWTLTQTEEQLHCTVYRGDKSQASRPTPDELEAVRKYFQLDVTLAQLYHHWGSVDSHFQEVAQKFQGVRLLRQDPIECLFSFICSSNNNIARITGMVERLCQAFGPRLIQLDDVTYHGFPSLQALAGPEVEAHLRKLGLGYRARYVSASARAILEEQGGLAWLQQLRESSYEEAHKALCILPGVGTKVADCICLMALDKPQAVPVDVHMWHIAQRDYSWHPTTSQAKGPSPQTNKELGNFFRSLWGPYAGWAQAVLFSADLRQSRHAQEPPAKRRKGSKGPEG
PARP-1 DNA binding domain (1–373 aa), His-tagged (P09874, residues 1-373): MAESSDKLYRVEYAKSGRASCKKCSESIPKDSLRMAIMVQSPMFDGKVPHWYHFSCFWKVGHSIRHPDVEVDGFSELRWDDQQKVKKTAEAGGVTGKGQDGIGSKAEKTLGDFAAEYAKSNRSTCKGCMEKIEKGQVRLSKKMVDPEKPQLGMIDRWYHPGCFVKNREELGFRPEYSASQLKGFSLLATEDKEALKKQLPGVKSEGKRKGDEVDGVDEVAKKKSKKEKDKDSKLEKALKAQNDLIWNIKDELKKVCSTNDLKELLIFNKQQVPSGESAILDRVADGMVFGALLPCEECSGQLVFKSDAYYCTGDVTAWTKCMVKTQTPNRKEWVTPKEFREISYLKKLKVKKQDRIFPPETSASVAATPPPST
PARP-1 catalytic domain (656–1014 aa), His-tagged (P09874, residues 656-1014): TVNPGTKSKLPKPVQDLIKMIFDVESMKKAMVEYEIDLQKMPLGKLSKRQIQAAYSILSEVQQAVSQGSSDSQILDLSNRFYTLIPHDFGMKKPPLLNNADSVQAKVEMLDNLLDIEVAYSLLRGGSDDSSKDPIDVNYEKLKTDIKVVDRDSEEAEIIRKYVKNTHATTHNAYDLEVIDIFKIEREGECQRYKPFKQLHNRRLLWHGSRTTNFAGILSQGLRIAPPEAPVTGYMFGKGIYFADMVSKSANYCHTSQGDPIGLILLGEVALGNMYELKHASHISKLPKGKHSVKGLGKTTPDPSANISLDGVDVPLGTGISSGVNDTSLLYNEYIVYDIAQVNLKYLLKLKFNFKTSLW
UniProt P11103: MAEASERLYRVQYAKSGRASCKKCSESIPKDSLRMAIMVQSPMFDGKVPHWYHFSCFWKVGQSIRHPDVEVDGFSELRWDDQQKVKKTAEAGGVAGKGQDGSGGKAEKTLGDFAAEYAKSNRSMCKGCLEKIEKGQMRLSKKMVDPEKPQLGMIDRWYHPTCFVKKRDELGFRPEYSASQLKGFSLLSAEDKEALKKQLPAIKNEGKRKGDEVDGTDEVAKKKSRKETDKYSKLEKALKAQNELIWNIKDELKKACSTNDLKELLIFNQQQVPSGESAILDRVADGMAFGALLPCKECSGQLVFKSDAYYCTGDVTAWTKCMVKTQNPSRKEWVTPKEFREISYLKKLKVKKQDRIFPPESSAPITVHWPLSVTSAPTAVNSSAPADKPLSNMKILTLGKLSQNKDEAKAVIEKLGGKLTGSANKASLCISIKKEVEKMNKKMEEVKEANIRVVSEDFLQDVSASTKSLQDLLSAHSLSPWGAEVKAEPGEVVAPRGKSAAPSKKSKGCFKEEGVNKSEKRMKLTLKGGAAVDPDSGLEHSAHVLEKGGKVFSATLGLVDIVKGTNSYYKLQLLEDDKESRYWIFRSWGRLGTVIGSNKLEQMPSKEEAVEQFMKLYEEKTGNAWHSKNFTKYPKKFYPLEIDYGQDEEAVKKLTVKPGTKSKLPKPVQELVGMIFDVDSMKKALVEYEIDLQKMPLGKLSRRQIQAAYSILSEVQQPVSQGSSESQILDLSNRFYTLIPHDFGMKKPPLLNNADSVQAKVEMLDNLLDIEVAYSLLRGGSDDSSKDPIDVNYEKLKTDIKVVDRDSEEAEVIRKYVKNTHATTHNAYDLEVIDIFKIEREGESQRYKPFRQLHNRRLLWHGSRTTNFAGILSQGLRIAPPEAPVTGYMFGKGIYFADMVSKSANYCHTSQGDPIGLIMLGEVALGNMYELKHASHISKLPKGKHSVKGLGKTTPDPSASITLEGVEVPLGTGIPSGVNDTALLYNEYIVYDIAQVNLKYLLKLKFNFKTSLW

Assays:
[1] = target: GST-NEIL1 (GST tagged full-length NEIL1) (UniProt Q96FI4); assay: pull-down; 1 μg GST-NEIL1 incubated with 1 μg His-tagged PARP-1 domain, without ethidium bromide; immunoblot with anti-His or anti-BRCT antibodies; both purified
[2] = target: GST-NEIL1 (GST tagged full-length NEIL1) (UniProt Q96FI4); assay: pull-down; 1 μg GST-NEIL1 incubated with 1 μg His-tagged PARP-1 DNA binding domain in the presence of 10 μg/ml ethidium bromide; immunoblot with anti-His; both purified
[3] = target: GST-NEIL1 (GST tagged full-length NEIL1) (UniProt Q96FI4); assay: pull-down; 20 μg GST fusion protein incubated with 175 μg liver nuclear extract of young (7 month) or old (17 month) C57Bl/6 mice in IP buffer 1 hr at 4°C, washed 5X; immunoblot with anti-PARP-1; only the target purified
GST-OGG1 (human) = GST-OGG1 (human) (UniProt O15527); assay: as above

Row | binding [1] | binding [3] | binding (GST-OGG1 (human)) | Substance | binding [2]
1 | no binding (tested: 1 μg) |  |  | PARP-1 catalytic domain (656–1014 aa), His-tagged (from UniProt P09874 656-1014) (domain or fragment) | 
2 | no binding (tested: 1 μg) |  |  | PARP-1 DNA binding domain (1–373 aa), His-tagged (from UniProt P09874 1-373) (domain or fragment) | no binding (condition: with 10 μg/ml ethidium bromide)
3 |  | binds | binds | PARP-1, endogenous in mouse liver nuclear extracts (from UniProt P11103 1-1013) (enzyme) | 
